# This is one part of the list.
# What was measured:
# Test in all cases: glycan array binding signal (z-score within array); higher = stronger binding
# Settings in all cases: glycan notation: IUPAC condensed, linker removed
# GalNAc(b1-3)Gal = biological target: GalNAc(b1-3)Gal
# Summary of the method: (§1)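 Columns mapping to the same glycan were averaged after glycan names were converted to IUPAC-condensed notation. The data come from 3228 arrays in the Consortium for Functional Glycomics database, limited to those with an available protein sequence. Binding is reported as a within-array Z-score averaged across arrays of one protein sequence and across linkers.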
# [1] = biological target: GalNAc(b1-3)Gal(a1-4)Gal(b1-4)GlcNAc
# Summary of the method: as §1
# [2] = biological target: GalNAc(b1-3)Gal(a1-4)Gal(b1-4)GlcNAc(b1-3)Gal(b1-4)Glc
# Summary of the method: as §1
# [3] = biological target: GalNAc(b1-3)Gal(a1-6)Gal(b1-4)Glc
# Summary of the method: as §1
# GalNAc(b1-3)GalNAc = biological target: GalNAc(b1-3)GalNAc
# Summary of the method: as §1
# GalNAc(b1-3)GlcNAc = biological target: GalNAc(b1-3)GlcNAc
# Summary of the method: as §1
# GalNAc(b1-4)Gal(b1-4)Glc = biological target: GalNAc(b1-4)Gal(b1-4)Glc
# Summary of the method: as §1
# GalNAc(b1-4)GlcNAc = biological target: GalNAc(b1-4)GlcNAc
# Summary of the method: as §1
# [4] = biological target: GalNAc(b1-4)GlcNAc(b1-2)Man
# Summary of the method: as §1
# [5] = biological target: GalNAc(b1-4)GlcNAc(b1-2)Man(a1-3)[GalNAc(b1-4)GlcNAc(b1-2)Man(a1-6)]Man(b1-4)GlcNAc(b1-4)GlcNAc
# Summary of the method: as §1
# [6] = biological target: GalNAc(b1-4)GlcNAc(b1-3)GalNAc(b1-4)GlcNAc
# Summary of the method: as §1
# GalNAc(b1-4)GlcNAc6S = biological target: GalNAc(b1-4)GlcNAc6S
# Summary of the method: as §1
# GalNAc(b1-6)GalNAc = biological target: GalNAc(b1-6)GalNAc
# Summary of the method: as §1
# GalNAc3S(b1-4)GlcNAc = biological target: GalNAc3S(b1-4)GlcNAc
# Summary of the method: as §1
# GalNAc3S(b1-4)GlcNAc3S = biological target: GalNAc3S(b1-4)GlcNAc3S
# Summary of the method: as §1
# [7] = biological target: GalNAc3S(b1-4)[Fuc(a1-3)]GlcNAc
# Summary of the method: as §1
# GalNAc4S6S(b1-4)GlcNAc = biological target: GalNAc4S6S(b1-4)GlcNAc
# Summary of the method: as §1
# GalNAc6S(b1-4)GlcNAc = biological target: GalNAc6S(b1-4)GlcNAc
# Summary of the method: as §1
# Glc(a1-4)Glc = biological target: Glc(a1-4)Glc
# Summary of the method: as §1
# [8] = biological target: Glc(a1-4)Glc(a1-4)Glc(a1-4)Glc
# Summary of the method: as §1
# Glc(a1-6)Glc(a1-6)Glc = biological target: Glc(a1-6)Glc(a1-6)Glc
# Summary of the method: as §1
# [9] = biological target: Glc(a1-6)Glc(a1-6)Glc(a1-6)Glc
# Summary of the method: as §1
# Glc(b1-4)Glc = biological target: Glc(b1-4)Glc
# Summary of the method: as §1
# Glc(b1-6)Glc = biological target: Glc(b1-6)Glc
# Summary of the method: as §1
# GlcA(b1-3)Gal = biological target: GlcA(b1-3)Gal
# Summary of the method: as §1
# GlcA(b1-3)GlcNAc = biological target: GlcA(b1-3)GlcNAc
# Summary of the method: as §1
# GlcA(b1-6)Gal = biological target: GlcA(b1-6)Gal
# Summary of the method: as §1
# [10] = biological target: GlcA3S(b1-3)Gal(b1-4)GlcNAc(b1-2)Man
# Summary of the method: as §1
# [11] = biological target: GlcA3S(b1-3)Gal(b1-4)GlcNAc(b1-3)Gal(b1-4)Glc
# Summary of the method: as §1
# [12] = biological target: GlcNAc(a1-3)Gal(b1-4)GlcNAc
# Summary of the method: as §1
# [13] = biological target: GlcNAc(a1-4)Gal(b1-3)GlcNAc
# Summary of the method: as §1
# [14] = biological target: GlcNAc(a1-4)Gal(b1-4)GalNAc
# Summary of the method: as §1
# [15] = biological target: GlcNAc(a1-4)Gal(b1-4)GlcNAc
# Summary of the method: as §1
# [16] = biological target: GlcNAc(a1-4)Gal(b1-4)GlcNAc(b1-3)Gal(b1-4)Glc
# Summary of the method: as §1
# [17] = biological target: GlcNAc(a1-4)Gal(b1-4)GlcNAc(b1-3)Gal(b1-4)GlcNAc
# Summary of the method: as §1
# [18] = biological target: GlcNAc(a1-4)Gal(b1-4)GlcNAc(b1-3)Gal(b1-4)GlcNAc(b1-3)Gal(b1-4)GlcNAc
# Summary of the method: as §1
# [19] = biological target: GlcNAc(a1-4)Gal(b1-4)GlcNAc(b1-3)Gal(b1-4)[Fuc(a1-3)]GlcNAc(b1-3)Gal(b1-4)[Fuc(a1-3)]GlcNAc
# Summary of the method: as §1
# [20] = biological target: GlcNAc(a1-6)Gal(b1-4)GlcNAc
# Summary of the method: as §1
binder,measurement,setting,value
Si Bti9 1b-V5-his (Solanum lycopersicum) (protein) MQCNRGCDLALASFYVWRGSNLTLISEMFSTSIADIVSYNNRDNIPNQDSVIAGTRINIPFRCDCLNDGEVLGHAFPYRVKSGDTYDLVARNYSDLTTAQWMMKFNSYPENNIPNTVNLSVVVNCSCGNSDVSKDFGLFVTYPVRAEDNLTSVASAANVSEDIIRRYNPAAVSILDIGQGIIYIPGRDRNGNFPPLPTSTDGLSGGAKKGGRADPAFLYKVVINSKLEGKPIPNPLLGLDSTRTGHHHHHH,glycan array binding signal (z-score),GalNAc(b1-3)Gal,0
same,glycan array binding signal (z-score),[1],-0.423
same,glycan array binding signal (z-score),[2],-0.027
same,glycan array binding signal (z-score),[3],-0.348
same,glycan array binding signal (z-score),GalNAc(b1-3)GalNAc,-0.28
same,glycan array binding signal (z-score),GalNAc(b1-3)GlcNAc,-0.361
same,glycan array binding signal (z-score),GalNAc(b1-4)Gal(b1-4)Glc,0.254
same,glycan array binding signal (z-score),GalNAc(b1-4)GlcNAc,-0.018
same,glycan array binding signal (z-score),[4],-0.416
same,glycan array binding signal (z-score),[5],0.095
same,glycan array binding signal (z-score),[6],0.051
same,glycan array binding signal (z-score),GalNAc(b1-4)GlcNAc6S,0.056
same,glycan array binding signal (z-score),GalNAc(b1-6)GalNAc,-0.204
same,glycan array binding signal (z-score),GalNAc3S(b1-4)GlcNAc,-0.394
same,glycan array binding signal (z-score),GalNAc3S(b1-4)GlcNAc3S,-0.324
same,glycan array binding signal (z-score),[7],4.72
same,glycan array binding signal (z-score),GalNAc4S6S(b1-4)GlcNAc,-0.18
same,glycan array binding signal (z-score),GalNAc6S(b1-4)GlcNAc,-0.261
same,glycan array binding signal (z-score),Glc(a1-4)Glc,-0.263
same,glycan array binding signal (z-score),[8],-0.197
same,glycan array binding signal (z-score),Glc(a1-6)Glc(a1-6)Glc,-0.279
same,glycan array binding signal (z-score),[9],-0.061
same,glycan array binding signal (z-score),Glc(b1-4)Glc,-0.113
same,glycan array binding signal (z-score),Glc(b1-6)Glc,0.033
same,glycan array binding signal (z-score),GlcA(b1-3)Gal,-0.45
same,glycan array binding signal (z-score),GlcA(b1-3)GlcNAc,-0.343
same,glycan array binding signal (z-score),GlcA(b1-6)Gal,-0.125
same,glycan array binding signal (z-score),[10],-0.169
same,glycan array binding signal (z-score),[11],-0.256
same,glycan array binding signal (z-score),[12],-0.238
same,glycan array binding signal (z-score),[13],-0.178
same,glycan array binding signal (z-score),[14],-0.238
same,glycan array binding signal (z-score),[15],-0.243
same,glycan array binding signal (z-score),[16],-0.226
same,glycan array binding signal (z-score),[17],-0.108
same,glycan array binding signal (z-score),[18],-0.338
same,glycan array binding signal (z-score),[19],0.18
same,glycan array binding signal (z-score),[20],-0.138

# — the supplement of paper PMC8728848
